According to the supplement of paper PMC9446081:
Screen size: about 39,000 compounds; about 220 (0.56%) showed activity. This is one part of the list.

System: Escherichia coli K-12 BW25113
Assay: relative growth (OD600 normalised to plate interquartile mean) (fraction); higher = less growth inhibition, active = 0.2 or less
Conditions: 50 µM; LB; incubation time: overnight (16-24 h)
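Further: static incubation at 37 °C against the wild-type strain, values averaged over two biological replicates.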

| SMILES | relative growth |
| --- | --- |
| CC(C)(C)S(=O)N1Cc2cc(C(=O)NCc3ccc4c(c3)OCO4)nc(-c3cccc(-c4cccc(F)c4)c3)c2[C@H]1CCO (stereo partly drawn) | inactive: 1.04 |
| C[C@@H]1CN([C@@H](C)CO)C(=O)c2cc(NC(=O)Nc3cccc4ccccc34)ccc2O[C@@H](C)CCCCO[C@@H]1CN(C)Cc1ccccc1 | inactive: 1.03 |
| CC(=O)OCCn1c(=O)[nH]c(=O)c2nsnc21 | inactive: 0.94 |
| Cc1cc(C(=O)Nc2cccc3c2O[C@@H](CN(C)S(=O)(=O)c2ccc(Cl)cc2)[C@H](C)CN([C@H](C)CO)C3=O)n(C)n1 | inactive: 0.999 |
| CN1CCc2nc(C(=O)N[C@@H]3C[C@@H](C(=O)N(C)C)CC[C@@H]3NC(=O)C(=O)Nc3ccc(Cl)cn3)sc2C1 | inactive: 1.02 |
| COc1cccc(NC(=O)N[C@H]2C=C[C@H](CC(=O)N3CCOCC3)O[C@H]2CO)c1 | inactive: 1.01 |
| C[C@@H]1CN([C@@H](C)CO)C(=O)c2cccc(NC(=O)c3nc4ccccc4s3)c2O[C@H]1CN(C)C(=O)Nc1ccc(F)cc1 | inactive: 1.03 |
| C[C@H](CO)N1C[C@H](C)[C@@H](CN(C)S(=O)(=O)c2ccccc2)Oc2ncc(Br)cc2C1=O | inactive: 1 |
| C[C@H](CO)N1C[C@H](C)[C@@H](CN(C)C(=O)Nc2ccccc2)OCCCC[C@H](C)Oc2ccc(NC(=O)Nc3ccccc3)cc2C1=O | inactive: 1 |
| C[C@@H]1CCCCO[C@@H](CN(C)Cc2ccc(C(F)(F)F)cc2)[C@H](C)CN([C@@H](C)CO)C(=O)c2cc(NC(=O)NC3CCCCC3)ccc2O1 | inactive: 0.965 |
| CC(C)NC(=O)N(C)C[C@@H]1Oc2ccc(NC(=O)c3ccncc3)cc2CC(=O)N([C@H](C)CO)C[C@@H]1C | inactive: 0.979 |
| O=C(C[C@@H]1C=C[C@H](NC(=O)C2CCC2)[C@@H](CO)O1)NCCCN1CCOCC1 | inactive: 0.998 |
| CC1(C)Cc2cc(CN)ccc2O1 | inactive: 1.03 |
| C[C@@H]1CN([C@H](C)CO)C(=O)c2cc(NC(=O)C3CCCCC3)ccc2O[C@@H](C)CCCCO[C@H]1CN(C)Cc1ccccc1 | inactive: 1 |
| O=c1c(O[C@@H]2O[C@H](CO)[C@H](O)[C@H](O)[C@H]2O)c(-c2ccc(O)c(O)c2)oc2cc(O)cc(O)c12 | inactive: 0.986 |
| COc1ccc(C#Cc2ccc3c(c2)O[C@@H](CN(C)C(C)=O)[C@H](C)CN([C@H](C)CO)S3(=O)=O)cc1 | inactive: 0.986 |
| CN(C)CC(=O)N[C@@H]1CC[C@@H](CCn2cc(CN(C)C)nn2)O[C@H]1CO | inactive: 1.01 |
| C[C@@H]1CN([C@@H](C)CO)C(=O)c2cc(NS(=O)(=O)c3ccc(F)cc3)ccc2O[C@@H](C)CCCCO[C@H]1CN(C)C(=O)C1CCCCC1 | inactive: 1.03 |
| CN1CCN(C(=O)C[C@@H]2CC[C@H]3[C@@H](COC[C@H](O)CN3C(=O)C3CCCC3)O2)CC1 | inactive: 0.927 |
| C[C@@H]1CN([C@@H](C)CO)C(=O)Cc2cc(NC(=O)CCCCCC(=O)Nc3ccccc3N)ccc2O[C@H]1CN(C)S(=O)(=O)c1cn(C)cn1 | inactive: 0.969 |

| SMILES | relative growth |
| --- | --- |
| C[C@@H]1CN([C@H](C)CO)C(=O)c2cccc(NC(=O)NC3CCCCC3)c2O[C@@H]1CN(C)S(=O)(=O)c1cn(C)cn1 | inactive: 1.02 |
| CCS(=O)(=O)Nc1ccc2c(c1)C(=O)N(C)[C@H]1CC[C@@H](CC(=O)NCCCN3CCOCC3)O[C@H]1CO2 | inactive: 1.02 |
| Cc1noc(C)c1S(=O)(=O)Nc1cccc2c1O[C@@H](CN(C)CC1CC1)[C@@H](C)CN([C@@H](C)CO)C2=O | inactive: 0.99 |
| C[C@H]1CN([C@@H](C)CO)S(=O)(=O)c2ccc(-c3ccncc3)cc2O[C@H]1CN(C)S(=O)(=O)c1ccccc1F | inactive: 0.98 |
| Cc1ccc(S(=O)(=O)Nc2ccc3c(c2)C(=O)N([C@@H](C)CO)C[C@H](C)[C@@H](CN(C)C(=O)NC(C)C)O3)cc1 | inactive: 1.02 |
| Cc1noc(C)c1S(=O)(=O)Nc1ccc2c(c1)C(=O)N([C@H](C)CO)C[C@H](C)[C@@H](CN(C)C(=O)Nc1ccccc1)O2 | inactive: 0.984 |
| C[C@H](CO)N1C[C@H](C)[C@H](CN(C)S(=O)(=O)c2cccs2)Oc2c(NC(=O)C3CC3)cccc2C1=O | inactive: 0.995 |
| CCC1C(=O)OCC1Cc1cncn1C.O=[N+]([O-])O (stereo not drawn) | inactive: 1.03 |
| COC(=O)C[C@@H]1CC[C@@H]2[C@H](COC[C@@H](O)CN2S(=O)(=O)c2ccc(F)cc2)O1 | inactive: 0.96 |
| O=C(NCC(F)(F)F)c1cc2c(c(-c3cccc(-c4ccccc4F)c3)n1)[C@@H](CCO)N(C(=O)CC1CC1)C2 | inactive: 1.09 |
| O=C(C[C@H]1C[C@@H]2c3cc(NS(=O)(=O)c4ccc(F)cc4)ccc3O[C@@H]2[C@@H](CO)O1)NCc1cccc(F)c1 | inactive: 1 |
| Cc1ccc(S(=O)(=O)Nc2ccc3c(c2)C(=O)N([C@@H](C)CO)C[C@@H](C)[C@@H](CN(C)C(=O)Nc2ccc4c(c2)OCO4)OCCCC[C@H](C)O3)cc1 | inactive: 1 |
| C[C@@H]1[C@H]2[C@H](O[C@@H]3O[C@H](CO)[C@@H](O)[C@H](O)[C@H]3O)OC=C(C(=O)O)[C@H]2C[C@@H]1OC(=O)/C=C/c1ccc(O)cc1 | inactive: 0.966 |
| C[C@@H]1CN([C@@H](C)CO)C(=O)c2cccc(NS(=O)(=O)c3ccc(Cl)cc3)c2O[C@@H]1CN(C)C(=O)Nc1ccc(C(F)(F)F)cc1 | inactive: 1.05 |
| C[C@H]1CN([C@@H](C)CO)C(=O)c2cc(NC(=O)Nc3ccc(C(F)(F)F)cc3)ccc2O[C@@H]1CN(C)Cc1ccc(-c2ccccc2)cc1 | inactive: 1.03 |
| Cc1ccc(S(=O)(=O)N(C)C[C@H]2OCCCC[C@H](C)Oc3ccc(NS(=O)(=O)c4ccc(F)cc4)cc3C(=O)N([C@H](C)CO)C[C@H]2C)cc1 | inactive: 1.04 |
| CN1CCN(C(=O)C[C@H]2CC[C@H]3[C@H](COc4ccc(NC(=O)c5ccc(F)c(F)c5)cc4C(=O)N3C)O2)CC1 | inactive: 1.01 |
| C[C@H](CO)N1C[C@H](C)[C@H](CN(C)Cc2ccccc2)Oc2ncc(-c3cccc(C(F)(F)F)c3)cc2C1=O | inactive: 0.969 |
| C[C@@H]1CCCCO[C@@H](CN(C)S(=O)(=O)c2ccc(Cl)cc2)[C@H](C)CN([C@H](C)CO)C(=O)c2cc(NC(=O)Nc3ccc4c(c3)OCO4)ccc2O1 | inactive: 1.01 |
| CN(C)C1C(O)=C(C(N)=O)C(=O)C2(O)C(O)=C3C(=O)c4c(O)ccc(Cl)c4C(O)C3CC12.Cl (stereo not drawn) | active: 0.0565 |

| SMILES | relative growth |
| --- | --- |
| C[C@@H]1CCCCO[C@@H](CN(C)Cc2ccc(C(F)(F)F)cc2)[C@@H](C)CN([C@@H](C)CO)C(=O)c2cc(NC(=O)Nc3cccc4ccccc34)ccc2O1 | inactive: 0.99 |
| C=CCOC(=O)[C@@H]1[C@H]2C(=O)O[C@H](c3ccccc3)[C@H](c3ccccc3)N2[C@H](c2ccc(OCCOC(=O)[C@@H]3C[C@@H]4C(=O)N5CCC[C@H]5C(=O)N4[C@@H]3c3cccc(OCCO)c3)cc2)[C@@]12C(=O)Nc1ccc(I)cc12 | inactive: 1.05 |
| O=c1cn[nH]c(NC2CCCC2)n1 | inactive: 0.944 |
| Cc1noc(C)c1NC(=O)Nc1cccc2c1O[C@@H](CN(C)Cc1ccc(C(F)(F)F)cc1)[C@H](C)CN([C@@H](C)CO)C2=O | inactive: 0.965 |
| N=C(N)Nc1nc2ccccc2[nH]1 | inactive: 1.06 |
| COCC#Cc1ccc([C@@H]2[C@@H](CO)N3C(=O)CN(C(=O)c4cccnc4)C[C@@H]23)cc1 | inactive: 0.991 |
| C[C@H]1CN([C@@H](C)CO)C(=O)c2cccc(NC(=O)C3CCOCC3)c2O[C@@H]1CN(C)C(=O)Nc1ccccc1 | inactive: 1.03 |
| C[C@@H]1CN([C@H](C)CO)C(=O)c2c(c3ccccc3n2C)-c2ccccc2CO[C@H]1CN(C)C(=O)Nc1ccc(-c2ccccc2)cc1 | inactive: 1.03 |
| C[C@H]1CN([C@@H](C)CO)C(=O)c2cc(NC(=O)Nc3cccc4ccccc34)ccc2O[C@@H]1CN(C)Cc1ccncc1 | inactive: 0.996 |
| CC(C)NC(=O)NCC[C@H]1CC[C@@H](NC(=O)CN(C)C)[C@@H](CO)O1 | inactive: 1 |
| C[C@@H]1CN([C@@H](C)CO)C(=O)c2cc(NC(=O)c3ccncc3)ccc2O[C@H]1CN(C)Cc1ccncc1 | inactive: 0.991 |
| COc1ccc(OC)c([C@H]2C(C(=O)c3c(C)nc4c(C)cccn34)=C(O)C(=O)N2CCN2CCOCC2)c1 | inactive: 0.996 |
| CCCC#Cc1cnc2c(c1)C(=O)N([C@@H](C)CO)C[C@@H](C)[C@@H](CN(C)S(=O)(=O)c1cccc(OC)c1)O2 | inactive: 1 |
| COc1cc2c(cc1OC)CN(C(=O)[C@@H]1[C@H]3C(=O)O[C@H](c4ccccc4)[C@H](c4ccccc4)N3[C@H](c3ccc(OCCO)cc3)[C@@]13C(=O)Nc1ccc(C#CC4(O)CCCCCC4)cc13)CC2 | inactive: 1.09 |
| CCO[C@@H]1OC(C(=O)N2CCOCC2)=C[C@H](c2coc3ccccc3c2=O)[C@H]1CCCOC(=O)NCCCCCC(=O)NO | inactive: 0.992 |
| COc1ccc(S(=O)(=O)N(C)C[C@H]2Oc3cc(C#CC4CCCC4)ccc3S(=O)(=O)N([C@@H](C)CO)C[C@H]2C)cc1 | inactive: 1.04 |
| C[C@@H]1CN([C@H](C)CO)C(=O)c2cc(NC(=O)Nc3ccc(C(F)(F)F)cc3)ccc2O[C@@H](C)CCCCO[C@@H]1CN(C)C(=O)Nc1cccc2ccccc12 | inactive: 1.05 |
| COc1cc(/C=C/C(=O)CC2=N/C(=N/Cc3ccc4c(c3)OCO4)S[C@H](c3ccc(O)c(OC)c3)C2)ccc1O | inactive: 1.02 |
